# According to PubChem BioAssay AID1240 (Sanford-Burnham Center for Chemical Genomics, 2008):
# The campaign covered roughly 50,000 compounds. About 800 (1.6%) showed an effect of 50% or more. Some of the results follow.
# Target: Bcl-2-like protein 10 (Homo sapiens) (UniProt Q9HD36)
# Experiment: Phenotype converters, Bcl-B/TR3 peptide binding displacement, primary biochemical FP (AID 1240);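 further: 0% = Bcl-B with tracer peptide and DMSO and 100% = tracer peptide lacking Bcl-B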
# Conditions: GST-Bcl-B / FITC-TR3 peptide fluorescence polarization; stronger effect = higher value; compound at 3.75 mg/L
# Chain of UniProt Q9HD36 (Q9HD36 whole entry, looked up): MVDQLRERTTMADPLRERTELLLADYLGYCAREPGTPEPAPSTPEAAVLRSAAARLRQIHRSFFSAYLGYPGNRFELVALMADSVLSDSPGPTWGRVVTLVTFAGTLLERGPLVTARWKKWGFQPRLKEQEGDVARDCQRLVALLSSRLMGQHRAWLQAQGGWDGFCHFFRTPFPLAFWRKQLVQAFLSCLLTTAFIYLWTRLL
row,SMILES,displacement [%]
1,COc1ccc(C2CC(=O)C3=C(C2)Nc2ccccc2NC3c2ccncc2)cc1OC (centres undefined),-5.8
2,COc1ccc(COC(=O)C2=C(C)NC3=C(C(=O)CC(C)(C)C3)C2c2ccc(Cl)c([N+](=O)[O-])c2)cc1 (centres undefined),3.9
3,CCOC(=O)c1ccc(NC(=O)Cc2ccc(Br)cc2)cc1,6.9
4,COc1ccc(-c2nnc(-c3sc4ccccc4c3Cl)o2)cc1,6.3
5,O=C(COc1ccc([N+](=O)[O-])cc1)Nc1cccc2nsnc12,13.9
6,CCN1C(=O)/C(=C/c2ccc(OC(=O)c3ccccc3I)c(OC)c2)SC1=S,-4.2
7,Cc1ccc2nc(-c3cc(N=C/C=C/c4ccc(Cl)cc4)ccc3O)oc2c1,1.8
8,CCc1ccc(-c2cc(C(=O)NC(C)C)c3ccccc3n2)cc1,-10.9
9,O=C(/C=C/c1cccc(C(F)(F)F)c1)Nc1cccc2ncccc12,14.9
10,O=C1NC(=Nc2cccc(O)c2)S/C1=C\c1cccc(O)c1,1.9
11,CCOC(=O)c1sc(NC(=O)c2ccc(Br)o2)nc1C,-10.7
12,O=C(Nc1cccnc1)c1cccc2c(Br)cccc12,0.8
13,Cc1ccsc1-c1ncnn1-c1ccc(Cl)cc1,15
14,CC(C)C1=NN2C(=N)/C(=C/c3ccc(-c4ccc(F)c(Cl)c4)o3)C(=O)N=C2S1,146
15,CCOc1cccc(-c2cc(C(=O)NN)[nH]n2)c1,-18.6
16,O=C(O)c1cccc(NC(=O)c2cc(S(=O)(=O)N(CCO)CCO)ccc2Cl)c1,-12.3
17,Cc1ccc(NC(=O)COc2ccc(C(C)(C)C)cc2)c([N+](=O)[O-])c1,4.5
18,Cc1ccc(S(=O)(=O)N/N=C2/CCCc3c2[nH]c2ccccc32)cc1,-7.7
19,COc1ccc(-c2cc(C(F)(F)F)n3nc(C(=O)OC(C)C)cc3n2)cc1OC,1.6
20,COc1cccc(N2C(=O)c3ccc(C(=O)Nc4ccccc4O)cc3C2=O)c1,-6.6
21,COc1ccccc1CC(=O)NCc1ccccn1,-2.1
22,Cc1ccc(C(C)C)c(OCC(=O)Nc2cccc(C)n2)c1,6.2
23,O=C(O)c1cc(C23CC4CC(CC(C4)C2)C3)nc2ccccc12,-6
24,CCOC(=O)CC(O)(c1ccccc1)C(F)(F)C(F)F (centres undefined),15.4
25,COc1ccc(C2=NN(c3ccccc3)C(c3ccccc3F)C2)cc1 (centres undefined),53.9
26,C/C(Nc1ccc2c(c1)OCO2)=C(/C#N)C(N)=O,15.6
27,CC(=O)Oc1ccccc1/C=C1\CCOC1=O,3.3

row,SMILES,displacement [%]
1,Nc1ccc(S(=O)(=O)Nc2cccc3cccnc23)cc1,13
2,Cc1ccccc1C1(Cc2ccccc2)C(=O)c2ccccc2C1=O,14.4
3,O=C(O)c1nc(N2C(=O)c3ccccc3C2=O)n[nH]1,-8.4
4,CCCOc1ccc(C(=O)Nc2ccc(-c3nc4cc(C)c(C)cc4o3)c(O)c2)cc1,10.8
5,NC(=O)c1ccc(NC(=O)CCN2C(=O)c3ccccc3C2=O)cc1,26.7
6,Cc1sc2nc(-c3ccc(C(C)C)cc3)[nH]c(=O)c2c1C,-9.2
7,Cc1ccc(S(=O)(=O)Nc2sc(Cc3ccccc3)c(C)c2C(N)=O)cc1,5.2
8,CCc1cccc(C)c1NC(=O)c1ccoc1C,15.2
9,COc1cccc2cc(C(=O)Nc3ccccc3C(=O)O)c(=O)oc12,7.8
10,CNS(=O)(=O)c1cc(O)c2c(S(=O)(=O)NC)cc(S(=O)(=O)NC)cc2c1,4
11,COC(=O)CN1C(=O)/C(=C\c2ccco2)SC1=S,13.3
12,N/C(=N\OC(=O)C12CC3CC(CC(C3)C1)C2)c1ccccn1,-8
13,Cc1ccc(C(=O)N/N=C/C=C/c2ccc([N+](=O)[O-])cc2)cn1,26.3
14,CC(=O)Nc1cc2nn(-c3ccc(C)cc3)nc2cc1C,1.3
15,COc1cccc(C2C(C(C)=O)=C(O)C(=O)N2CCN(C)C)c1 (centres undefined),5.2
16,COc1ccc(-n2c(SCC(=O)N3CCCCC3)nc(O)c(Cc3ccccc3)c2=O)cc1,8.7
17,COC(=O)CN(c1ccc(OC)cc1OC)S(=O)(=O)c1ccc(C)cc1,5.4
18,CC1=C(C(=O)N/N=C/c2c(O)ccc3ccccc23)Sc2ccccc2N1,2.3
19,N#C/C(=C\c1ccc2c(c1)OCO2)C(=O)Nc1ccc(F)cc1,-12.3
20,COc1cc(/C=C(/C#N)c2nc3ccccc3[nH]2)ccc1OC(C)C,-3.4
21,COc1cc2c(cc1OC)C(/C(=N/O)C(C)=O)=NCC2,-6
22,Cc1nc(-c2ccccc2)nc(N/N=C/c2cccc(F)c2)c1C,-2.5
23,CC1CCCCN1C(=O)c1cc(-c2ccccc2)nc2ccccc12 (centres undefined),3.9
24,O=c1oc(-c2ccc(Br)cc2)nc2ccccc12,-2.8
25,CCOc1ccc(C(=O)Nc2cc3nn(-c4ccc(OC)cc4)nc3cc2C)cc1,9.1
26,Cc1cccc(-n2c(C)cc(/C=N\NC(=O)c3ccco3)c2C)c1,-18.2
27,Brc1cccc(CN2CCN(C3CCN(Cc4ccccc4)CC3)CC2)c1,-28.6
